In paper PMC9911399, “Two distinct binding modes provide the RNA-binding protein RbFox with extraordinary sequence specificity”:
Positions count from the first letter of the chain named. This is one part of the list.

T1: RBFOX1 RRM RbFoxmut (Fox-RRM*) (Homo sapiens, UniProt Q9NWB1 109-208, R118D;E147R;N151S;E152T)
T1 sequence: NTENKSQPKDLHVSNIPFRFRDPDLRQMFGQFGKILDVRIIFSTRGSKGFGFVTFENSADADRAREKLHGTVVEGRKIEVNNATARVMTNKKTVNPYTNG

B1: GGACGCG (DNA:RNA)
RNA: GGGAGACCGGAAUUCAGAUUGUCCGGACGCGUUAAAUCCCGUCGUAGCCACCA
DNA 1: CAATCTGAATTCCGGTCTCCC
DNA 2: TGGTGGCTACGACGGGATT
B2: AAUCGAU (DNA:RNA)
RNA: B1 RNA with G25A, G26A, A27U, C30A, G31U
DNA 1: CAATCTGAATTCCGGTCTCCC
DNA 2: TGGTGGCTACGACGGGATT
B3: GCGCGCG (DNA:RNA)
RNA: B1 RNA with G26C, A27G
DNA 1: CAATCTGAATTCCGGTCTCCC
DNA 2: TGGTGGCTACGACGGGATT
B4: CCUUUGU (DNA:RNA)
RNA: GGGAGACCGGAAUUCAGAUUGUCCCCUUUGUUUAAAUCCCGUCGUAGCCACCA
DNA 1: CAATCTGAATTCCGGTCTCCC
DNA 2: TGGTGGCTACGACGGGATT
B5: UAGAGGC (DNA:RNA)
RNA: B4 RNA with C25U, C26A, U27G, U28A, U29G, U31C
DNA 1: CAATCTGAATTCCGGTCTCCC
DNA 2: TGGTGGCTACGACGGGATT
B6: CCACUAA (DNA:RNA)
RNA: B4 RNA with U27A, U28C, G30A, U31A
DNA 1: CAATCTGAATTCCGGTCTCCC
DNA 2: TGGTGGCTACGACGGGATT
B7: UGAUAAA (DNA:RNA)
RNA: B1 RNA with G25U, C28U, G29A, C30A, G31A
DNA 1: CAATCTGAATTCCGGTCTCCC
DNA 2: TGGTGGCTACGACGGGATT
B8: GACUAUC (DNA:RNA)
RNA: B4 RNA with C25G, C26A, U27C, U29A, G30U, U31C
DNA 1: CAATCTGAATTCCGGTCTCCC
DNA 2: TGGTGGCTACGACGGGATT
B9: GCCCUGU (DNA:RNA)
RNA: B4 RNA with C25G, U27C, U28C
DNA 1: CAATCTGAATTCCGGTCTCCC
DNA 2: TGGTGGCTACGACGGGATT
B10: ACAUUCC (DNA:RNA)
RNA: B4 RNA with C25A, U27A, G30C, U31C
DNA 1: CAATCTGAATTCCGGTCTCCC
DNA 2: TGGTGGCTACGACGGGATT
B11: UACGCUC (DNA:RNA)
RNA: GGGAGACCGGAAUUCAGAUUGUCCUACGCUCUUAAAUCCCGUCGUAGCCACCA
DNA 1: CAATCTGAATTCCGGTCTCCC
DNA 2: TGGTGGCTACGACGGGATT
B12: GAGAGGG (DNA:RNA)
RNA: B1 RNA with G26A, A27G, C28A, C30G
DNA 1: CAATCTGAATTCCGGTCTCCC
DNA 2: TGGTGGCTACGACGGGATT
B13: CGGGAAC (DNA:RNA)
RNA: B11 RNA with U25C, A26G, C27G, C29A, U30A
DNA 1: CAATCTGAATTCCGGTCTCCC
DNA 2: TGGTGGCTACGACGGGATT
B14: GAGACUA (DNA:RNA)
RNA: B11 RNA with U25G, C27G, G28A, C31A
DNA 1: CAATCTGAATTCCGGTCTCCC
DNA 2: TGGTGGCTACGACGGGATT
B15: ACUGACC (DNA:RNA)
RNA: B4 RNA with C25A, U28G, U29A, G30C, U31C
DNA 1: CAATCTGAATTCCGGTCTCCC
DNA 2: TGGTGGCTACGACGGGATT
B16: CACUGCG (DNA:RNA)
RNA: B1 RNA with G25C, G26A, A27C, C28U
DNA 1: CAATCTGAATTCCGGTCTCCC
DNA 2: TGGTGGCTACGACGGGATT
B17: UUUACAA (DNA:RNA)
RNA: B11 RNA with A26U, C27U, G28A, U30A, C31A
DNA 1: CAATCTGAATTCCGGTCTCCC
DNA 2: TGGTGGCTACGACGGGATT
B18: UCCCAUA (DNA:RNA)
RNA: B11 RNA with A26C, G28C, C29A, C31A
DNA 1: CAATCTGAATTCCGGTCTCCC
DNA 2: TGGTGGCTACGACGGGATT
B19: UCGCGUG (DNA:RNA)
RNA: B1 RNA with G25U, G26C, A27G, C30U
DNA 1: CAATCTGAATTCCGGTCTCCC
DNA 2: TGGTGGCTACGACGGGATT
B20: UUGGGAC (DNA:RNA)
RNA: B11 RNA with A26U, C27G, C29G, U30A
DNA 1: CAATCTGAATTCCGGTCTCCC
DNA 2: TGGTGGCTACGACGGGATT
B21: ACUUCGU (DNA:RNA)
RNA: B4 RNA with C25A, U29C
DNA 1: CAATCTGAATTCCGGTCTCCC
DNA 2: TGGTGGCTACGACGGGATT
B22: CUCUUAG (DNA:RNA)
RNA: B4 RNA with C26U, U27C, G30A, U31G
DNA 1: CAATCTGAATTCCGGTCTCCC
DNA 2: TGGTGGCTACGACGGGATT
B23: ACACAGG (DNA:RNA)
RNA: B1 RNA with G25A, G26C, G29A, C30G
DNA 1: CAATCTGAATTCCGGTCTCCC
DNA 2: TGGTGGCTACGACGGGATT
B24: GAUACAU (DNA:RNA)
RNA: B4 RNA with C25G, C26A, U28A, U29C, G30A
DNA 1: CAATCTGAATTCCGGTCTCCC
DNA 2: TGGTGGCTACGACGGGATT
B25: UGGAAAA (DNA:RNA)
RNA: B1 RNA with G25U, A27G, C28A, G29A, C30A, G31A
DNA 1: CAATCTGAATTCCGGTCTCCC
DNA 2: TGGTGGCTACGACGGGATT
B26: UCUUGGC (DNA:RNA)
RNA: B4 RNA with C25U, U29G, U31C
DNA 1: CAATCTGAATTCCGGTCTCCC
DNA 2: TGGTGGCTACGACGGGATT
B27: GGAUACA (DNA:RNA)
RNA: B1 RNA with C28U, G29A, G31A
DNA 1: CAATCTGAATTCCGGTCTCCC
DNA 2: TGGTGGCTACGACGGGATT
B28: GCAGGUG (DNA:RNA)
RNA: B1 RNA with G26C, C28G, C30U
DNA 1: CAATCTGAATTCCGGTCTCCC
DNA 2: TGGTGGCTACGACGGGATT
B29: UCGUCCC (DNA:RNA)
RNA: B11 RNA with A26C, C27G, G28U, U30C
DNA 1: CAATCTGAATTCCGGTCTCCC
DNA 2: TGGTGGCTACGACGGGATT
B30: CUCGGCU (DNA:RNA)
RNA: B4 RNA with C26U, U27C, U28G, U29G, G30C
DNA 1: CAATCTGAATTCCGGTCTCCC
DNA 2: TGGTGGCTACGACGGGATT
B31: UGUCGCG (DNA:RNA)
RNA: B1 RNA with G25U, A27U
DNA 1: CAATCTGAATTCCGGTCTCCC
DNA 2: TGGTGGCTACGACGGGATT

target: T1, RBFOX1 RRM RbFoxmut (Fox-RRM*); test: EMSA; HiTS-Eq, 1 nM pool, 10 min; buffer printed only for the single-RNA assays: 10 mM Tris pH 7.5, 150 mM NaCl, 3.4 mM EDTA, 0.001% NP-40, 30 C; settings: tags: His6 N-terminal (pET28a); label: 5' 32P
Summary of the method: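 Purified RbFox RRM (wild type or mutant) was equilibrated for 10 min in 50 µL with 1 nM of a 5′-radiolabelled pool of RNA with 7 randomized nucleotides, its flanks annealed to DNA oligonucleotides, across increasing protein concentrations. Free RNA was separated by 8% native PAGE, excised, reverse-transcribed, PCR-barcoded and sequenced on an Illumina HiSeq 2500. Relative association constants came from read-count changes of each variant against the control reaction, normalised to the cognate motif.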

Binder	binding signal
B1	0.119 KA relative to UGCAUGU
B2	0.0717 KA relative to UGCAUGU
B3	0.149 KA relative to UGCAUGU
B4	0.126 KA relative to UGCAUGU
B5	0.0881 KA relative to UGCAUGU
B6	0.103 KA relative to UGCAUGU
B7	0.0793 KA relative to UGCAUGU
B8	0.0686 KA relative to UGCAUGU
B9	0.114 KA relative to UGCAUGU
B10	0.0574 KA relative to UGCAUGU
B11	0.054 KA relative to UGCAUGU
B12	0.0626 KA relative to UGCAUGU
B13	0.0826 KA relative to UGCAUGU
B14	0.0787 KA relative to UGCAUGU
B15	0.0842 KA relative to UGCAUGU
B16	0.126 KA relative to UGCAUGU

Binder	binding signal
B17	0.0641 KA relative to UGCAUGU
B18	0.0976 KA relative to UGCAUGU
B19	0.153 KA relative to UGCAUGU
B20	0.0762 KA relative to UGCAUGU
B21	0.112 KA relative to UGCAUGU
B22	0.175 KA relative to UGCAUGU
B23	0.105 KA relative to UGCAUGU
B24	0.0777 KA relative to UGCAUGU
B25	0.0695 KA relative to UGCAUGU
B26	0.106 KA relative to UGCAUGU
B27	0.0831 KA relative to UGCAUGU
B28	0.123 KA relative to UGCAUGU
B29	0.0463 KA relative to UGCAUGU
B30	0.0859 KA relative to UGCAUGU
B31	0.151 KA relative to UGCAUGU
